Assay results published in the supplement of paper PMC12217912.
The list shows a part of the results. Sequences were assembled here from the parent chain. Values near 0.05 are background.

B1: TEV protease; numbered along this chain (parent)
chain: MGESLFKGPRDYNPISSSICHLTNESDGHTTSLYGIGFGPFIITNKHLFRRNNGTLVVQSLHGVFKVKDTTTLQQHLVDGRDMIIIRMPKDFPPFPQKLKFREPQREERICLVTTNFQTKSMSSMVSDTSCTFPSGDGIFWKHWIQTKDGQCGSPLVSTRDGFIVGIHSASNFTNTNNYFTSVPKNFMELLTNQEAQQWVSGWRLNADSVLWGGHKVFMVKPEEPFQPVKEATQL

Variants of: B1
Experiment: raw area under fraction-flipped curve 0-4 h after induction (AUC4h, not background-subtracted), DNA-recorder readout of cleavage of the substrate (dimensionless); higher = more cleavage of the substrate by the protease variant
Settings: temperature: 34 °C; time window: 0-4 h after rhamnose induction
Description: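 In vivo DNA recorder in E. coli TOP10(DE3) ΔrhaA at 34 °C. Each TEVp single-site mutant (parent TEVp 0) is paired with a single-site variant of the 7-mer TEVs (canonical ENLYFQ|S). The substrate sits between flexible linkers in a Bxb1-sfGFP-TEVs-SsrA fusion, so cleavage stabilises Bxb1 and speeds flipping of a recombination array, read by NGS. The value is the raw area under the fraction-flipped curve over 0-4 h after rhamnose induction (AUC4h), with ≥20 reads per time point. It is not background-subtracted; inactive controls average about 0.047.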
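Further: Bxb1 expression induced with 0.2% (w/v) L-rhamnose at OD600 near 0.5, cultures sampled hourly, flipped fraction per protease–substrate barcode pair counted by paired-end Illumina sequencing.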

| Variant | area with substrate ENLYFAS | area with substrate ENLYFES | area with substrate ENLYFFS | area with substrate ENLYFGS | area with substrate ENLYFIS | area with substrate ENLYFKS | area with substrate ENLYFMS | area with substrate ENLYFNS | area with substrate ENLYFPS | area with substrate ENLYFRS | area with substrate ENLYFSS | area with substrate ENLYFTS | area with substrate ENLYFVS | area with substrate ENLYFCS | area with substrate ENLYFHS | area with substrate ENLYFYS | area with substrate ENLYFDS | area with substrate ENLYFLS | area with substrate ENLYFWS |
| --- | --- | --- | --- | --- | --- | --- | --- | --- | --- | --- | --- | --- | --- | --- | --- | --- | --- | --- | --- |
| G166W | 0.0561 | 0.0174 | 0.0492 | 0.0488 | 0.0524 | 0.0554 | 0.0477 | 0.0584 | 0.0589 | 0.0492 | 0.054 | 0.0317 | 0.0661 | – | – | – | – | – | – |
| G166F | 0.0514 | 0.0588 | – | – | 0.0544 | – | 0.0618 | 0.0484 | 0.0403 | 0.042 | 0.0518 | 0.0432 | 0.0451 | 0.0353 | 0.0535 | 0.0618 | – | – | – |
| F173H | 0.0598 | 0.0632 | 0.0716 | 0.0599 | 0.0528 | 0.0813 | 0.0603 | 0.0595 | 0.0616 | 0.0026 | 0.0494 | – | 0.057 | 0.051 | 0.0624 | 0.053 | 0.0598 | 0.0567 | 0.0541 |
| V183P | 0.0538 | – | 0.0625 | – | 0.0626 | 0.0618 | 0.048 | 0.0841 | 0.0524 | – | 0.0678 | 0.0628 | 0.0485 | 0.041 | – | 0.0509 | 0.0564 | – | – |
| V183D | 0.0549 | 0.0564 | 0.0555 | – | 0.0449 | 0.0645 | 0.0542 | 0.0536 | 0.0579 | 0.0572 | 0.0394 | – | 0.0572 | 0.0484 | 0.0487 | 0.0543 | – | – | – |
| V183W | 0.0556 | 0.0656 | 0.0708 | – | 0.068 | 0.0586 | 0.0638 | 0.0621 | 0.0578 | – | 0.075 | 0.0497 | 0.0722 | 0.0455 | 0.0533 | – | 0.0544 | 0.0545 | 0.0653 |
| P184F | 0.0408 | 0.0526 | 0.0647 | 0.0673 | 0.0521 | – | 0.0167 | – | 0.0619 | – | 0.0499 | 0.0579 | 0.0607 | 0.0511 | 0.0592 | – | 0.0706 | – | 0.0576 |
| R160W | 0.0666 | 0.0888 | 0.0614 | – | – | 0.0716 | 0.081 | 0.0822 | – | – | 0.0631 | 0.0648 | 0.0736 | 0.0879 | 0.0562 | – | – | – | 0.0587 |
| G162L | 0.0609 | 0.0496 | 0.0668 | – | 0.0475 | – | – | 0.0644 | 0.0611 | 0.0663 | 0.0604 | 0.0664 | – | – | 0.0724 | – | 0.041 | 0.0512 | – |
| G162R | 0.0544 | – | 0.052 | – | 0.044 | 0.071 | – | – | 0.0553 | – | – | 0.062 | 0.032 | 0.0697 | – | – | – | – | 0.0572 |
| V165P | 0.0472 | 0.0559 | 0.0691 | 0.0537 | 0.0531 | – | 0.0485 | 0.0545 | 0.0578 | 0.0805 | – | – | 0.0372 | 0.024 | – | 0.0561 | 0.05 | 0.0515 | 0.0529 |
| I164G | 0.0869 | 0.0488 | – | 0.0708 | 0.0439 | 0.0601 | 0.0526 | 0.0667 | 0.0513 | 0.0505 | 0.0386 | – | 0.0492 | – | – | 0.0313 | – | 0.0616 | 0.0498 |
| I164Q | 0.0539 | 0.0533 | 0.0527 | – | 0.0572 | 0.0482 | 0.0555 | – | 0.0484 | 0.0489 | 0.0543 | 0.045 | 0.0606 | 0.0392 | 0.0543 | 0.0602 | 0.0546 | – | – |
